The values below come from paper PMC4336329 (PLoS ONE, 2015).

Hit rate of the full screen: of about 310,000 compounds, about 2,200 (0.71%) showed an effect of 50% or more. Effects have a minus sign here. Some of the results follow.

This experiment deals with human ether-à-go-go-related gene (hERG) potassium channel (human, UniProt Q12809). As to the kind of experiment: primary screen, population patch clamp on CHO cells stably expressing hERG.
Sequence of human ether-à-go-go-related gene (hERG) potassium channel (Q12809 whole entry, looked up): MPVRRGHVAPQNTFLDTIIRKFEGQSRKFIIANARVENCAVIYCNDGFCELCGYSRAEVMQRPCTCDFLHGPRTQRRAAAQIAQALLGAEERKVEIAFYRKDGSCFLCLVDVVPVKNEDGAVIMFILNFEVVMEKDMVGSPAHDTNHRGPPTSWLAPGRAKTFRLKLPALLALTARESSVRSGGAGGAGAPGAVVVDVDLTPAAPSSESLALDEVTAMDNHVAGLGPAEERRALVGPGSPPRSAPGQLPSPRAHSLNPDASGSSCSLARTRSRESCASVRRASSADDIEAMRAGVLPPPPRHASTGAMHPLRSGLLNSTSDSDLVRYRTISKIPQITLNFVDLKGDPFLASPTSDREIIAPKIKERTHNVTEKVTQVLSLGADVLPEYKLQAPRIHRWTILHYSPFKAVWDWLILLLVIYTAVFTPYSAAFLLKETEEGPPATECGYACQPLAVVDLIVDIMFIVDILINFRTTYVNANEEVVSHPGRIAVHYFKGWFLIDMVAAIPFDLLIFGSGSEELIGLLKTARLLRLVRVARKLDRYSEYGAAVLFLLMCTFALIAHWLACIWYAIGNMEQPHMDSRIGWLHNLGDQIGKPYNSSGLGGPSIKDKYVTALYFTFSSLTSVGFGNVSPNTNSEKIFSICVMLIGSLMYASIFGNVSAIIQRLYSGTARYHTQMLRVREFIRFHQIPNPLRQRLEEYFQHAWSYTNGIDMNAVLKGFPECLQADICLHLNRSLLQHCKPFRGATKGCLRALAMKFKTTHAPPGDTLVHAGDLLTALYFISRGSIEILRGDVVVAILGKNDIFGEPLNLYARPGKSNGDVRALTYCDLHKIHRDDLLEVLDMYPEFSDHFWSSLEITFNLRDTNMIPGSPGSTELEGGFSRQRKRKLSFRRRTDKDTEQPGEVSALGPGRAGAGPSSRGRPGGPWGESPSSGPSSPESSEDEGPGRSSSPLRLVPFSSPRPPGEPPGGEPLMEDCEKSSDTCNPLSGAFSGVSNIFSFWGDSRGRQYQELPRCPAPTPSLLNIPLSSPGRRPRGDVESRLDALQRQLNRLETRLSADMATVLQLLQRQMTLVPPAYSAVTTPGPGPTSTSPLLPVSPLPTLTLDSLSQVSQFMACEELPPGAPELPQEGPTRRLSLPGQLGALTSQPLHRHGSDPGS
`O=C(NCC1CCCO1)C1CC(=O)N(c2ccccc2)C1` (stereo not shown): the “hERG current change (%, negative = inhibition) at 1uM” value came out at 3.98%. Turning to `O=C(NNC(=S)Nc1ccccc1Cl)c1ccncc1`, the “hERG current change (%, negative = inhibition) at 1uM” value turned out to be 8.21%. In the case of `O=C(c1cccs1)N1CCCC(N2CCN(c3cccc(C(F)(F)F)c3)CC2)C1` (stereo not shown), the “hERG current change (%, negative = inhibition) at 1uM” value is -8.83%. Regarding `Cc1ccc(OCc2ccc(C(=O)Nc3nccs3)o2)cc1C`, the “hERG current change (%, negative = inhibition) at 1uM” value turned out to be 1.14%.

Regarding `Cc1cccc(N(CC(=O)NCc2ccco2)C(=O)CCC(=O)Nc2nccs2)c1C`, the “hERG current change (%, negative = inhibition) at 1uM” value is recorded as 16.1%. Turning to `COc1ccccc1CNS(=O)(=O)c1ccc(NC(C)=O)cc1`, the “hERG current change (%, negative = inhibition) at 1uM” value was -1.75%. For the compound `COc1ccc(OC)c(NC(=O)c2ccc3c(c2)C(=O)N(CC2CCCO2)C3=O)c1` (stereo not shown), the “hERG current change (%, negative = inhibition) at 1uM” value is 15%. The figure for `O=C1CCCN1C(=O)CSc1nnnn1-c1ccccc1` is 4.1%. For `Cc1ccc(N2C(=O)C3CCCN3C2=S)cc1` (stereo not shown), the “hERG current change (%, negative = inhibition) at 1uM” value stood at 15.7%. For `CCOC(=O)CCCCC(=O)c1[nH]c(=O)[nH]c1CSc1nc(-c2ccccc2)c(C#N)c(=O)[nH]1`, the “hERG current change (%, negative = inhibition) at 1uM” value amounted to 15.8%. `O=S(=O)(Nc1ccc(F)cc1)N1CCCCCC1`: the “hERG current change (%, negative = inhibition) at 1uM” value worked out at 0.267%.

With `N#Cc1ccc(S(=O)(=O)NCC(=O)OCC(=O)N2CCCC2=O)cc1`, the “hERG current change (%, negative = inhibition) at 1uM” value is given as 5.65%. As to `Cc1cc2nc[nH]c2cc1[N+](=O)[O-]`, the “hERG current change (%, negative = inhibition) at 1uM” value came out at 7.43%. Take `CCCCC(SCC(=O)Nc1ccccc1)C(=O)O` (stereo not shown): the “hERG current change (%, negative = inhibition) at 1uM” value was 6.96%. The same measure for `O=C(O)C1(c2ccccc2)CCN(S(=O)(=O)c2ccc(Cl)cc2)CC1`: 19.3%; for `O=C(O)CCn1c(SCCc2ccccc2)nc2ccccc21`: 12%; for `Cc1ccc(NC2=C(Cl)C(=O)OC2OC(C)C)c(C)c1` (stereo not shown): 4.91%. The same measure for `O=C(O)C1CCCCC1C(=O)NCCc1cccc(Cl)c1` (stereo not shown): -9.09%; for `O=C(CCCn1c(=S)[nH]c2ccccc2c1=O)N1CCCCC1`: 0.194%; for `CC(=O)Nc1ccc(SCC(=O)NC(=O)c2ccccc2Br)cc1`: 11.1%. The same measure for `O=C(CN(c1ccc(F)cc1)S(=O)(=O)c1ccccc1)NC1CCCCCC1`: 7.28%; for `Cn1cc(Cl)c(C(=O)OCC(=O)Nc2nc(-c3ccc(Br)cc3)cs2)n1`: 6.21%. Take `O=C(NCc1cccnc1)C(=O)NCC1OCCN1S(=O)(=O)c1cc(F)ccc1F` (stereo not shown): the “hERG current change (%, negative = inhibition) at 1uM” value is 2%. The same measure for `Cc1cc(C)c(Cn2c3ccccc3c3cnn(CC(=O)NCc4ccccn4)c(=O)c32)c(C)c1`: 15.2%; for `CCCCN(C)C(=O)CCC(=O)NNc1nc2ccccc2c2nc(C)nn12`: 7.84%. The figure for `Cc1cccc(NC(=O)/C=C/c2ccc(Cl)cc2)n1` is 4.04%. As for `O=c1oc(-c2cccs2)nc2ccc(Br)cc12`, the “hERG current change (%, negative = inhibition) at 1uM” value is 10%. Regarding `Cc1c(NC(=O)C(C)Sc2ccccc2)c(=O)n(-c2ccccc2)n1C` (stereo not shown), the “hERG current change (%, negative = inhibition) at 1uM” value came to 0.452%.

For the compound `COCCCNC(=O)CCNS(=O)(=O)c1ccc(C)cc1`, the “hERG current change (%, negative = inhibition) at 1uM” value came to 5.15%.

As for `C/C(=N\NC(=O)COc1ccc(C#N)cc1)c1ccc(N2CCOCC2)cc1`, the “hERG current change (%, negative = inhibition) at 1uM” value is recorded as 8.8%. Regarding `Cc1ccc(S(=O)(=O)N2[C@@H](c3ccccc3F)C(C(=O)O)=CC[C@H]2c2cccs2)cc1`, the “hERG current change (%, negative = inhibition) at 1uM” value was determined as 15.2%. Take `CC(C)NC(=S)N=Nc1c(O)[nH]c2ccc([N+](=O)[O-])cc12`: the “hERG current change (%, negative = inhibition) at 1uM” value is recorded as 18.4%. `COc1nc(N)nc(NC(=O)c2cccs2)c1N=O`: the “hERG current change (%, negative = inhibition) at 1uM” value is reported as 17.7%. The same measure for `COc1cc(C(=O)N2CCSCC2)ccc1OC1CCN(C(C)=O)CC1`: 5.62%; for `COc1ccc(-n2cc(CN3CCC(OC)CC3)c(-c3cccc(F)c3)n2)cc1`: 19.9%; for `Cc1ccc(N2C(=O)N(c3ccc(C)cc3)C3CS(=O)(=O)CC32)cc1` (stereo not shown): 14.3%. Regarding `O=S(=O)(Nc1cccc2ncccc12)c1cccc(C(F)(F)F)c1`, the “hERG current change (%, negative = inhibition) at 1uM” value turned out to be 13.3%. The same measure for `CCC(=O)NNc1cc(=O)c2c(=O)n(C)c(=O)n(C)c2[nH]1`: 4.54%; for `CC(=O)c1cc(C#N)c(SCc2ccc([N+](=O)[O-])cc2)nc1C`: 10.4%; for `CCN1CCCC1CN(Cc1cc2cc(OC)ccc2[nH]c1=O)C(=O)NCc1ccccc1` (stereo not shown): -8.13%.

Turning to `C#CCCc1ccccc1/C=[N+](/C)[O-]`, the “hERG current change (%, negative = inhibition) at 1uM” value came out at 16.5%. Regarding `CC[n+]1c(C)sc2cc(C)ccc21.[I-]`, the “hERG current change (%, negative = inhibition) at 1uM” value is given as 11.3%. The same measure for `CCc1ccc(C2CC(c3ccccc3Cl)Nc3nc(N)nn32)cc1` (stereo not shown): 14.6%; for `O=C(c1ccc(S(=O)(=O)N2CCCC2)cc1)N1CCN(c2cccc(Cl)c2)CC1`: -4.13%. For `COc1ccc(-c2cc(=O)oc3cc(OCC(=O)Nc4ccc(CCO)cc4)ccc23)cc1`, the “hERG current change (%, negative = inhibition) at 1uM” value is 8.93%. The same measure for `CCCCOC(=O)c1ccccc1C(=O)OCc1ccccc1`: 14.5%.
